Assay results: the supplement of paper PMC8728848
Some of the results follow.

Tests used:
Assay in all cases: glycan array binding signal (z-score within array); higher = stronger binding
Settings in all cases: glycan notation: IUPAC condensed, linker removed
[1] = biological target: Gal(a1-3)[Gal(a1-4)]Gal(b1-4)GlcNAc
How it was run: (§1)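 Glycan array data were curated from 3228 arrays in the Consortium for Functional Glycomics database and kept only where the protein sequence was available. Glycan names were converted to IUPAC-condensed notation, and columns mapping to the same glycan were averaged. The binding signal is a within-array Z-score, averaged across arrays of the same protein sequence at different concentrations or buffers and across linkers. Negative Z-scores can be read as non-binding.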

[2] = biological target: Gal(a1-4)Gal(b1-3)GlcNAc(b1-2)Man(a1-3)[Gal(a1-4)Gal(b1-3)GlcNAc(b1-2)Man(a1-6)]Man(b1-4)GlcNAc(b1-4)GlcNAc
How it was run: as §1

Gal(a1-4)Gal(b1-4)Glc = biological target: Gal(a1-4)Gal(b1-4)Glc
How it was run: as §1

Gal(a1-4)Gal(b1-4)GlcNAc = biological target: Gal(a1-4)Gal(b1-4)GlcNAc
How it was run: as §1

[3] = biological target: Gal(a1-4)Gal(b1-4)GlcNAc(b1-2)Man(a1-3)[Gal(a1-4)Gal(b1-4)GlcNAc(b1-2)Man(a1-6)]Man(b1-4)GlcNAc(b1-4)GlcNAc
How it was run: as §1

[4] = biological target: Gal(a1-4)Gal(b1-4)GlcNAc(b1-3)Gal(b1-4)Glc
How it was run: as §1

Gal(a1-4)GlcNAc = biological target: Gal(a1-4)GlcNAc
How it was run: as §1

Gal(a1-6)Glc = biological target: Gal(a1-6)Glc
How it was run: as §1

Gal(b1-2)Gal = biological target: Gal(b1-2)Gal
How it was run: as §1

Gal(b1-3)Gal = biological target: Gal(b1-3)Gal
How it was run: as §1

Gal(b1-3)Gal(b1-4)GlcNAc = biological target: Gal(b1-3)Gal(b1-4)GlcNAc
How it was run: as §1

[5] = biological target: Gal(b1-3)Gal(b1-4)GlcNAc(b1-2)Man(a1-3)[Gal(b1-3)Gal(b1-4)GlcNAc(b1-2)Man(a1-6)]Man(b1-4)GlcNAc(b1-4)GlcNAc
How it was run: as §1

Gal(b1-3)GalNAc = biological target: Gal(b1-3)GalNAc
How it was run: as §1

[6] = biological target: Gal(b1-3)GalNAc(a1-3)[Fuc(a1-2)]Gal(b1-4)Glc
How it was run: as §1

[7] = biological target: Gal(b1-3)GalNAc(a1-3)[Fuc(a1-2)]Gal(b1-4)GlcNAc
How it was run: as §1

Gal(b1-3)GalNAc(b1-3)Gal = biological target: Gal(b1-3)GalNAc(b1-3)Gal
How it was run: as §1

[8] = biological target: Gal(b1-3)GalNAc(b1-3)Gal(a1-4)Gal(b1-4)Glc
How it was run: as §1

[9] = biological target: Gal(b1-3)GalNAc(b1-4)Gal(b1-4)Glc
How it was run: as §1

[10] = biological target: Gal(b1-3)GalNAc(b1-4)Gal3S(b1-4)Glc
How it was run: as §1

[11] = biological target: Gal(b1-3)GalNAc(b1-4)[Neu5Ac(a2-3)]Gal(b1-4)Glc
How it was run: as §1

[12] = biological target: Gal(b1-3)GalNAc(b1-4)[Neu5Gc(a2-3)]Gal(b1-4)Glc
How it was run: as §1

Gal(b1-3)GlcNAc = biological target: Gal(b1-3)GlcNAc
How it was run: as §1

[13] = biological target: Gal(b1-3)GlcNAc(a1-3)Gal(b1-4)GlcNAc
How it was run: as §1

[14] = biological target: Gal(b1-3)GlcNAc(a1-6)Gal(b1-4)GlcNAc
How it was run: as §1

Gal(b1-3)GlcNAc(b1-2)Man = biological target: Gal(b1-3)GlcNAc(b1-2)Man
How it was run: as §1

[15] = biological target: Gal(b1-3)GlcNAc(b1-2)Man(a1-3)[Gal(b1-3)GlcNAc(b1-2)Man(a1-6)]Man(b1-4)GlcNAc(b1-4)GlcNAc
How it was run: as §1

[16] = biological target: Gal(b1-3)GlcNAc(b1-2)Man(a1-3)[Gal(b1-3)GlcNAc(b1-2)Man(a1-6)]Man(b1-4)GlcNAc(b1-4)[Fuc(a1-6)]GlcNAc
How it was run: as §1

[17] = biological target: Gal(b1-3)GlcNAc(b1-2)Man(a1-3)[GlcNAc(b1-4)][Gal(b1-3)GlcNAc(b1-2)Man(a1-6)]Man(b1-4)GlcNAc(b1-4)GlcNAc
How it was run: as §1

[18] = biological target: Gal(b1-3)GlcNAc(b1-2)[Gal(b1-3)GlcNAc(b1-6)]Man(a1-6)[Gal(b1-3)GlcNAc(b1-2)Man(a1-3)]Man(b1-4)GlcNAc(b1-4)GlcNAc
How it was run: as §1

[19] = biological target: Gal(b1-3)GlcNAc(b1-3)Gal(b1-3)GlcNAc
How it was run: as §1

[20] = biological target: Gal(b1-3)GlcNAc(b1-3)Gal(b1-4)Glc
How it was run: as §1

[21] = biological target: Gal(b1-3)GlcNAc(b1-3)Gal(b1-4)GlcNAc
How it was run: as §1

[22] = biological target: Gal(b1-3)GlcNAc(b1-3)Gal(b1-4)GlcNAc(b1-2)Man(a1-3)[Gal(b1-3)GlcNAc(b1-3)Gal(b1-4)GlcNAc(b1-2)Man(a1-6)]Man(b1-4)GlcNAc(b1-4)GlcNAc
How it was run: as §1

[23] = biological target: Gal(b1-3)GlcNAc(b1-3)Gal(b1-4)GlcNAc(b1-2)[Gal(b1-3)GlcNAc(b1-3)Gal(b1-4)GlcNAc(b1-6)]Man(a1-6)[Gal(b1-3)GlcNAc(b1-3)Gal(b1-4)GlcNAc(b1-2)Man(a1-3)]Man(b1-4)GlcNAc(b1-4)[Fuc(a1-6)]GlcNAc
How it was run: as §1

[24] = biological target: Gal(b1-3)GlcNAc(b1-3)Gal(b1-4)GlcNAc(b1-3)Gal(b1-4)Glc
How it was run: as §1

[25] = biological target: Gal(b1-3)GlcNAc(b1-3)Gal(b1-4)GlcNAc(b1-3)Gal(b1-4)GlcNAc(b1-2)[Gal(b1-3)GlcNAc(b1-3)Gal(b1-4)GlcNAc(b1-3)Gal(b1-4)GlcNAc(b1-6)]Man(a1-6)[Gal(b1-3)GlcNAc(b1-3)Gal(b1-4)GlcNAc(b1-3)Gal(b1-4)GlcNAc(b1-2)Man(a1-3)]Man(b1-4)GlcNAc(b1-4)[Fuc(a1-6)]GlcNAc
How it was run: as §1

[26] = biological target: Gal(b1-3)GlcNAc(b1-3)Gal(b1-4)GlcNAc(b1-6)[Gal(b1-3)GlcNAc(b1-3)]Gal(b1-4)Glc
How it was run: as §1

B1: PNA (Arachis hypogaea), P02872 (protein)
chain: MKPFCVFLTFFLLLAASSKKVDSAETVSFNFNSFSEGNPAINFQGDVTVLSNGNIQLTNLNKVNSVGRVLYAMPVRIWSSATGNVASFLTSFSFEMKDIKDYDPADGIIFFIAPEDTQIPAGSIGGGTLGVSDTKGAGHFVGVEFDTYSNSEYNDPPTDHVGIDVNSVDSVKTVPWNSVSGAVVKVTVIYDSSTKTLSVAVTNDNGDITTIAQVVDLKAKLPERVKFGFSASGSLGGRQIHLIRSWSFTSTLITTTRRSIDNNEKKIMNMASA
- glycan array binding signal (z-score) [1]: -0.127
- glycan array binding signal (z-score) [2]: -0.16
- glycan array binding signal (z-score) (Gal(a1-4)Gal(b1-4)Glc): -0.161
- glycan array binding signal (z-score) (Gal(a1-4)Gal(b1-4)GlcNAc): -0.177
- glycan array binding signal (z-score) [3]: -0.05
- glycan array binding signal (z-score) [4]: -0.15
- glycan array binding signal (z-score) (Gal(a1-4)GlcNAc): -0.157
- glycan array binding signal (z-score) (Gal(a1-6)Glc): -0.176
- glycan array binding signal (z-score) (Gal(b1-2)Gal): -0.173
- glycan array binding signal (z-score) (Gal(b1-3)Gal): 0.397
- glycan array binding signal (z-score) (Gal(b1-3)Gal(b1-4)GlcNAc): -0.001
- glycan array binding signal (z-score) [5]: 0.074
- glycan array binding signal (z-score) (Gal(b1-3)GalNAc): 1.37
- glycan array binding signal (z-score) [6]: 6
- glycan array binding signal (z-score) [7]: 8.53
- glycan array binding signal (z-score) (Gal(b1-3)GalNAc(b1-3)Gal): 5.33
- glycan array binding signal (z-score) [8]: 3.33
- glycan array binding signal (z-score) [9]: 7.85
- glycan array binding signal (z-score) [10]: 9.11
- glycan array binding signal (z-score) [11]: 3.91
- glycan array binding signal (z-score) [12]: 4.74
- glycan array binding signal (z-score) (Gal(b1-3)GlcNAc): -0.146
- glycan array binding signal (z-score) [13]: -0.49
- glycan array binding signal (z-score) [14]: -0.195
- glycan array binding signal (z-score) (Gal(b1-3)GlcNAc(b1-2)Man): -0.159
- glycan array binding signal (z-score) [15]: -0.12
- glycan array binding signal (z-score) [16]: -0.147
- glycan array binding signal (z-score) [17]: -0.227
- glycan array binding signal (z-score) [18]: -0.191
- glycan array binding signal (z-score) [19]: -0.166
- glycan array binding signal (z-score) [20]: 0.203
- glycan array binding signal (z-score) [21]: -0.217
- glycan array binding signal (z-score) [22]: -0.151
- glycan array binding signal (z-score) [23]: -0.28
- glycan array binding signal (z-score) [24]: 0.382
- glycan array binding signal (z-score) [25]: -0.067
- glycan array binding signal (z-score) [26]: 0.648
